We go through 88 sequences from the supplement of paper PMC11417369.

The list shows a part of the results.

The test deals with PfAP2-HC AP2 domain (GST-tagged). As to the kind of experiment: gcPBM binding intensity (ln(normalized median fluorescence intensity)); higher = stronger DNA binding. In short, it runs like this: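 Alexa488 anti-GST antibody, scanned at 488 nm, detected GST-tagged P. falciparum DNA-binding domains that had been expressed in E. coli and incubated for 1 h on an Agilent 4 × 180k array. The array carried primer-extended double-stranded 36-bp intergenic genomic probes and negative controls. Binding intensity is the highest Masliner-normalised natural-log median intensity across replicate spots of either orientation of each probe.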
On to “AAGTTATACACATCAACACACACATACAACGTGGTG [CACACA_site8312]”, for which the “gcPBM binding intensity (ln)” value came to 10.4.

Consider “CAAAATGATATGACAACACACAACCTATAGTAAGAC [CACACA_site1287]”, for which the “gcPBM binding intensity (ln)” value was determined as 10.3. Turning to “TAATATATAATAAAGTGTACATATGCTTTATTATTA [XGTACX_site1920]”, the “gcPBM binding intensity (ln)” value came to 9.64.

As for “TGACGACATTTCTTATGTACTAATTTTTCTTCCTTT [XGTACX_site4391]”, the “gcPBM binding intensity (ln)” value was 9.68.

In the case of “TAAAAAAAGAAAAAAAGTACATGCTACTTTTATGAT [XGTACX_site7818]”, the “gcPBM binding intensity (ln)” value was determined as 9.51.

Regarding “TATAATAAATCAAATGCACACACACTAATAAAAAAA [CACACA_site7937]”, the “gcPBM binding intensity (ln)” value stood at 11.3. As to “GGAATATAAATACATACACACATATATATATATATA [CACACA_site4998]”, the “gcPBM binding intensity (ln)” value was 10.1. Next, “TATATATTATATATATGTACTTATTTATTAATTTAT [XGTACX_site5253]”: 9.65; “ATATAAAATAAATAAGTGCAGATAAATTTATGTGAC [GTGCAC_site9504]”: 10.2; “TGTGGTTTTTATAATTGTACATATATATAAATCTAT [XGTACX_site4766]”: 9.77. “TGTTGTTATAAAAAAAAAAAAAAAAAAAAAAAAAAA [GTGCAC_negctrl_site230]”: the “gcPBM binding intensity (ln)” value was 9.03. Next, “ATGAATATTTACAATCTTATTATGTTCAAAATTAAT [CACACA_negctrl_site592]”: 9.4. As for “TACATGCTTATTTTAACACACAAATGGTAGTAATAA [CACACA_site766]”, the “gcPBM binding intensity (ln)” value was 9.69. Regarding “TGAATGCTTTTATGCACACGTACAAAAATATTATAT [CACACA_site2668]”, the “gcPBM binding intensity (ln)” value is 9.61. Next, “AATAAAAATAACCTAACATGCAAAAAAAAAAAAAAA [TGCATGCA_site718]”: 9.42; “GTCATTAAAAAAATATGTACTTAAATGTATGCATAT [XGTACX_site5951]”: 9.56; “TTTATACTTTCAAAATGTACATATATATATATATAT [XGTACX_site6241]”: 9.77. With “ATTTCTCTATCGTAATGTACAAAAAAAAGGGAAAAG [XGTACX_site1335]”, the “gcPBM binding intensity (ln)” value came out at 9.61. For the sequence “ATTGAAGGGAAATATATAATCATATTCAAAATAAAA [CACACA_negctrl_site728]”, the “gcPBM binding intensity (ln)” value came to 9.59. Consider “CTAATCATAAAATATACACACACGGATACATTAAAT [CACACA_site2685]”, for which the “gcPBM binding intensity (ln)” value worked out at 10.

With “TAATATATAATTTTATGTACATAATTATAAACCCAT [XGTACX_site919]”, the “gcPBM binding intensity (ln)” value amounted to 9.57. Consider “CTTTTTACTTAATACACACACACACCCAAAAAAAAA [CACACA_site948]”, for which the “gcPBM binding intensity (ln)” value is 10.2. “CATCAAAATGAAGCATGTACATAATATAAATAAATA [XGTACX_site4647]”: the “gcPBM binding intensity (ln)” value was determined as 9.72.

Consider “AAAAAATACCAAAGGGGTACTTACACATAATACTTA [XGTACX_site2111]”, for which the “gcPBM binding intensity (ln)” value worked out at 9.68. As for “TATGTATATTGAGATTGTACTTGTAATATTAAACAT [XGTACX_site3878]”, the “gcPBM binding intensity (ln)” value was found to be 9.53. As for “TTGTATAAAATATGTAGTACAATAATATAACATTTT [XGTACX_site8607]”, the figure is 9.6. Take “AATAATAAAAATATTGTGCACTTGTATATTTATTAT [GTGCAC_site9963]”: the “gcPBM binding intensity (ln)” value worked out at 9.6. Turning to “TTTTTTTTTTTTTTTTTTTTTTTCTACCTATTTATT [CACACA_negctrl_site94]”, the “gcPBM binding intensity (ln)” value came to 8.87. Next, “GGTATTTTCACATATAGTACACAAAAATAAAATAAA [XGTACX_site2139]”: 9.54; “AAGGAATAAAATTTAGAAGACAATTTTATTTCAGTA [XGTACX_negctrl_site331]”: 9.47; “ATATCAAATAATTTAGTGCACTTTTTTTTTTCTTTT [GTGCAC_site9629]”: 9.73. With CTTTATATATATTGCGTGCACATTTTTTTTTTTTTT, the “gcPBM binding intensity (ln)” value is 10. As for “GAAATAATAAAATCGACACACAAAAAAAAAAAAAAA [CACACA_site3476]”, the figure is 9.59; as for “CTATTTAAAATTTGAACACACATTATTTATTTTAAA [CACACA_site3114]”, 9.49; as for “AATAAATACAAAAATGTACACACATATATATATTTT [CACACA_site9167]”, 9.85. As to “TCAATATATATAAGAAGTACATGTGAATGAAAAAAA [XGTACX_site1674]”, the “gcPBM binding intensity (ln)” value is 9.69. On to “TTCTGTATACGGTGTGCACACAATTAAAAAAAAAAA [CACACA_site1416]”, for which the “gcPBM binding intensity (ln)” value amounted to 10.1.

“AACATATAAAAATATGCACACACAGGAATACAAACA [CACACA_site8127]”: the “gcPBM binding intensity (ln)” value is 11.2. In the case of “TTAAATAACCTCAAGGATAAGAAAAAATTAAAAATT [CACACA_negctrl_site1336]”, the “gcPBM binding intensity (ln)” value is 9.36. Regarding “GTAAATATATATATATATATATATATATATATATAT [GTGCAC_negctrl_site239]”, the “gcPBM binding intensity (ln)” value stood at 9.73.

Take “GGATTTTACCATAGCACACATATATGAATATTTTTC [CACACA_site1814]”: the “gcPBM binding intensity (ln)” value turned out to be 9.78. On to “TTTATATACTATCAACGTACAAAAGTAATAAAAATA [XGTACX_site4343]”, for which the “gcPBM binding intensity (ln)” value was 9.61. Next, CATTTTATTTTCTTTGTGCACAAAAATATTTTTTCT: 9.71.

As to “TTGTAACAAAAGTACACACACATTTCTATAAATTTT [CACACA_site2772]”, the “gcPBM binding intensity (ln)” value came out at 10. Consider “AAAGTTATGATATATACACACATATAAATATTAAAT [CACACA_site6361]”, for which the “gcPBM binding intensity (ln)” value was determined as 9.98. As for “TGTTCTAATTTTAATTGTACATATATACATATATAT [XGTACX_site7290]”, the “gcPBM binding intensity (ln)” value came out at 9.92. As for “TTTAAAAAAAAAAAAAATTTTTTTTTTTTTTTTTTA [CACACA_negctrl_site1415]”, the figure is 9.07; as for “CATATATATATATGAACACACAAAAAGAATATTTCC [CACACA_site1493]”, 10.1; as for “TCTATACCTATTCTTACACACATATGTATTTATATA [CACACA_site4475]”, 10.2.

As to “AATTATATTTAGTATATGCACACTTTATGTTTGTTA [CACACA_site2025]”, the “gcPBM binding intensity (ln)” value is 9.8. As for “GTAGAAAGAAAAATTAGTACTTAAATATTATAAAAA [XGTACX_site8458]”, the “gcPBM binding intensity (ln)” value came out at 9.52.

As for “TTCTATGCATTTATAGTGCATGTAAAATATAAGATA [GTGCAC_site9466]”, the “gcPBM binding intensity (ln)” value stood at 9.26. As for “TTTTAAAAAATATAATAATATAAATATTTTATACGT [TGCATGCA_negctrl_site252]”, the figure is 9.33; as for “GACTTTTTCATTTTTAGTACACATATATATTTCCCT [XGTACX_site3511]”, 10.1. Turning to “AAAAAAAAAAAACATACACACACACTAATATTTATA [CACACA_site8038]”, the “gcPBM binding intensity (ln)” value came out at 10.9. Next, “TTAAAAAATCACAACACACACACACCCAAAAAAAAA [CACACA_site1445]”: 10.6; “ATATATTTTTAATATGCACACAAGAATACATTCACA [CACACA_site914]”: 9.87.

Turning to “TTTATCCAATAATCTGGTACACAATAATCATTCATG [XGTACX_site6192]”, the “gcPBM binding intensity (ln)” value turned out to be 9.53. “TTTTTTTACTTAATAGTTCAACATATATCTCAATGT [CACACA_negctrl_site620]”: the “gcPBM binding intensity (ln)” value amounted to 9.66. In the case of “ATTCATATATACTTCACACACATTTTATCATTCAAA [CACACA_site2468]”, the “gcPBM binding intensity (ln)” value worked out at 10.2. As for “TTTCTATTTATTTCAAGTACTAAAAATATATATAAC [XGTACX_site8203]”, the “gcPBM binding intensity (ln)” value was 9.44. Turning to “TTTTTGTGCATTGATTGTACTTTCTAGGATTATTAA [XGTACX_site7070]”, the “gcPBM binding intensity (ln)” value is 9.59. As for “TTTTTTCATTATATATAGTATGCAAGTCAAATTAAT [GTGCAC_negctrl_site207]”, the “gcPBM binding intensity (ln)” value amounted to 9.43. Consider “TATATATATATATAAAGTACATATAATATATATTTG [XGTACX_site5412]”, for which the “gcPBM binding intensity (ln)” value was 9.59. On to TTTTTTTTTTTGATGGTGCAATATATTAAATAGAAA, for which the “gcPBM binding intensity (ln)” value stood at 9.21. Next, “AAAAAAAAAAAAAACATACACACATTGAACTTTTAT [CACACA_site3251]”: 10; “ACAAAATTTACAAAATGTACAAAATTTACAAAATAT [XGTACX_site3542]”: 9.8; “CTATAAAAATATAATTGTACAAATTTTTATATCTTA [XGTACX_site7722]”: 9.46. Consider “GAAATTATGTAAAAAAGTACTAACATACATATATAT [XGTACX_site1794]”, for which the “gcPBM binding intensity (ln)” value was 9.77. For the sequence “GAAAACGTCTTTAATAGTACACAGTTAAAAAATACA [XGTACX_site8976]”, the “gcPBM binding intensity (ln)” value was 9.36. Next, “TCATATAACACTTGATGTACAAGAATCCAAGTTGCA [XGTACX_site8758]”: 9.42; “ATATGTATAATATATATATATATATATATATATATA [CACACA_negctrl_site623]”: 9.6. With “TTAAAATAGATAAATAGTACTCTTTCCATTATGTAA [XGTACX_site6299]”, the “gcPBM binding intensity (ln)” value was 9.45. For “TATATAATAAGATATGCATGCACATGTAAAATGAAT [TGCATGCA_site499]”, the “gcPBM binding intensity (ln)” value is 10.1. Next, “ATAATGTTTTATAATACACACATTAGATATATAAAT [CACACA_site7834]”: 9.74; “GTGATAAATATTATATGTACATATAATATTTATGTC [XGTACX_site8023]”: 9.71; “TTGAACCTGATAAATACACACAATATATATTTTTTT [CACACA_site2173]”: 9.8. Turning to “TCAAAAACGAGACATGCATGCAATTCATTTTGATTC [TGCATGCA_site212]”, the “gcPBM binding intensity (ln)” value turned out to be 9.55. Regarding “CCATTCTTACTTTATTGTACTTGAAAATTTTTTTTA [XGTACX_site6160]”, the “gcPBM binding intensity (ln)” value was 9.97. Turning to “TAAATACTTTTATGTACACACATATAGATATATATT [CACACA_site5416]”, the “gcPBM binding intensity (ln)” value was 9.84. In the case of “TTATGAAAAATAAAATTAGAAAAAAAGGAAAATGAA [XGTACX_negctrl_site232]”, the “gcPBM binding intensity (ln)” value came to 9.64. “TTTCTTAAATATATTGAGGAATAAAAAGAAGAAAAG [GTGCAC_negctrl_site281]”: the “gcPBM binding intensity (ln)” value amounted to 9.51. With “AGGTTACATAGATTTTGTACATATATATTATTTTTT [XGTACX_site3040]”, the “gcPBM binding intensity (ln)” value turned out to be 9.71.

As to “AAAAAATTATAAAAGTGTACATATATATATATATAT [XGTACX_site154]”, the “gcPBM binding intensity (ln)” value came to 9.57. As for “ATATATATATGTTACTGTACTAATTTATATGTTAAT [XGTACX_site3341]”, the figure is 9.76. Consider “AATACAAATATATACACACATACATACATACATATA [CACACA_site3147]”, for which the “gcPBM binding intensity (ln)” value is 10.4. For “TAGATATATAATTTGCGTACACAAATAATATATTTT [XGTACX_site6397]”, the “gcPBM binding intensity (ln)” value is 9.53.

“TAGTTTTCTTAAAGATGTACATTTTAAAAATAATCT [XGTACX_site255]”: the “gcPBM binding intensity (ln)” value stood at 9.36.
